The list shows a part of the results. Sequences were assembled here from the parent chain. Values near 0.05 are background.
B1: TEV protease; numbered along this chain (parent)
chain: MGESLFKGPRDYNPISSSICHLTNESDGHTTSLYGIGFGPFIITNKHLFRRNNGTLVVQSLHGVFKVKDTTTLQQHLVDGRDMIIIRMPKDFPPFPQKLKFREPQREERICLVTTNFQTKSMSSMVSDTSCTFPSGDGIFWKHWIQTKDGQCGSPLVSTRDGFIVGIHSASNFTNTNNYFTSVPKNFMELLTNQEAQQWVSGWRLNADSVLWGGHKVFMVKPEEPFQPVKEATQL

Variants of: B1
Assay: raw area under fraction-flipped curve 0-4 h after induction (AUC4h, not background-subtracted), DNA-recorder readout of cleavage of the substrate (dimensionless); higher = more cleavage of the substrate by the protease variant
Details: temperature: 34 °C; time window: 0-4 h after rhamnose induction
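Further: Bxb1 expression induced with 0.2% (w/v) L-rhamnose at OD600 near 0.5, cultures sampled hourly, flipped fraction per protease–substrate barcode pair counted by paired-end Illumina sequencing.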

Variant	area with substrate ENLYCQS	area with substrate ENLYDQS	area with substrate ENLYEQS	area with substrate ENLYGQS	area with substrate ENLYHQS	area with substrate ENLYKQS	area with substrate ENLYLQS	area with substrate ENLYMQS	area with substrate ENLYNQS	area with substrate ENLYPQS	area with substrate ENLYQQS	area with substrate ENLYRQS	area with substrate ENLYSQS	area with substrate ENLYTQS	area with substrate ENLYVQS	area with substrate ENLYWQS	area with substrate ENLYYQS	area with substrate ENLYIQS
MGESLFKGPRDYNPISSSICHLTNESDGHTTSLYGIGFGPFIITNKHLFRRNNGTLVVQSLHGVFKVKDTTTLQQHLVDGRDMIIIRMPKDFPPFPQKLKFREPQREERICLVTTNFQTKSMSSMVSDTSCTFPSGDGIFWKHWIQIKDGQCGSPLVSTRDGFIVGIHSASNFTNTNNYFTSVPKNFMELLTNQEAQQWVSGWRLNADSVLWGGHKVFMVKPEEPFQPVKEATQL [T147I]	0.0787	0.052	0.0638	0.0568	0.0624	0.0774	0.0616	0.0607	0.061	0.0496	0.0762	0.0472	0.0482	0.0653	0.0776	0.062	0.067	
MGESLFKGPRDYNPISSSICHLTNESDGHTTSLYGIGFGPFIITNKHLFRRNNGTLVVQSLHGVFKVKDTTTLQQHLVDGRDMIIIRMPKDFPPFPQKLKFREPQREERICLVTTNFQTKSMSSMVSDTSCTFPSGDGIFWKHWIQWKDGQCGSPLVSTRDGFIVGIHSASNFTNTNNYFTSVPKNFMELLTNQEAQQWVSGWRLNADSVLWGGHKVFMVKPEEPFQPVKEATQL [T147W]	0.064	0.0704	0.0593	0.0638	0.0564			0.055	0.0666	0.0671		0.0604	0.0593	0.0496	0.0661	0.06	0.0502	0.0605
MGETLFKGPRDYNPISSSICHLTNESDGHTTSLYGIGFGPFIITNKHLFRRNNGTLVVQSLHGVFKVKDTTTLQQHLVDGRDMIIIRMPKDFPPFPQKLKFREPQREERICLVTTNFQTKSMSSMVSDTSCTFPSGDGIFWKHWIQTKDGQCGSPLVSTRDGFIVGIHSASNFTNTNNYFTSVPKNFMELLTNQEAQQWVSGWRLNADSVLWGGHKVFMVKPEEPFQPVKEATQL [S4T]	0.133	0.0676	0.0727	0.0652	0.0639	0.0485		0.102	0.111	0.103		0.0452		0.0837	0.155		0.077	0.14
MGESLFKGPRDYNPISSSICHLTNESDGHTTSLYGIGFGPFIITNKHLFRRNNGTLVVQSLHGVFKVKDTTTLQQHLVDGRDMIIIRMPKDFPPFPQKLKFREPQREERICLVTTNFQTKSMSSMVSDTSCTFPSGDGIFWKHWIQTKDGQCGSPLVSTRDGFIVGIHSASNFTNTNNKFTSVPKNFMELLTNQEAQQWVSGWRLNADSVLWGGHKVFMVKPEEPFQPVKEATQL [Y179K]	0.0803		0.0573									0.0581	0.0777					0.0647
MGESLFKGPRDYNPISSSICHLTNESDGHTTSLYGIGFCPFIITNKHLFRRNNGTLVVQSLHGVFKVKDTTTLQQHLVDGRDMIIIRMPKDFPPFPQKLKFREPQREERICLVTTNFQTKSMSSMVSDTSCTFPSGDGIFWKHWIQTKDGQCGSPLVSTRDGFIVGIHSASNFTNTNNYFTSVPKNFMELLTNQEAQQWVSGWRLNADSVLWGGHKVFMVKPEEPFQPVKEATQL [G39C]	0.0477	0.0513	0.0469	0.0469	0.057	0.0428	0.0676	0.0758	0.0509	0.0367		0.0329	0.0457	0.0393	0.08	0.0534		0.0434
MGESLFKGPRDYNPISSSICHLTNESDGHTTSLYGIGFHPFIITNKHLFRRNNGTLVVQSLHGVFKVKDTTTLQQHLVDGRDMIIIRMPKDFPPFPQKLKFREPQREERICLVTTNFQTKSMSSMVSDTSCTFPSGDGIFWKHWIQTKDGQCGSPLVSTRDGFIVGIHSASNFTNTNNYFTSVPKNFMELLTNQEAQQWVSGWRLNADSVLWGGHKVFMVKPEEPFQPVKEATQL [G39H]	0.0217		0.0518	0.042	0.0471	0.0363		0.0374	0.0334	0.0388	0.0519	0.0521	0.0502		0.0469	0.0466	0.0483	0.0266
MGESLFKGPRDYNPISSSICHLTNESDGHTTSLYGIGFGPFIITNKHLFRRNNGTLVVQSLHGVFKVKDTTTLQQHLVDGRDMIIIRMPKDFPPFPQKLKFREPQREERICLVTTNFQTKSMSSMVSDTSCTFPSGDGIFWDHWIQTKDGQCGSPLVSTRDGFIVGIHSASNFTNTNNYFTSVPKNFMELLTNQEAQQWVSGWRLNADSVLWGGHKVFMVKPEEPFQPVKEATQL [K142D]	0.0794	0.0652	0.0608	0.0566	0.0533	0.0647			0.0697			0.0672	0.0701		0.0723	0.0025		
MGESLFKGPRDYNPISSSICHLTNESDGHTTSLYGIGFGPFIITNKHLFRRNNGTLVVQSLHGVFKVKDTTTLQQHLVDGRDMIIIRMPKDFPPFPQKLKFREPQREERICLVTTNFQTKSMSAMVSDTSCTFPSGDGIFWKHWIQTKDGQCGSPLVSTRDGFIVGIHSASNFTNTNNYFTSVPKNFMELLTNQEAQQWVSGWRLNADSVLWGGHKVFMVKPEEPFQPVKEATQL [S124A]	0.0895		0.0645	0.0443		0.0593	0.0812	0.0838	0.0571	0.0579	0.0804	0.0429					0.0851	0.114
MGESLFKGPRDYNPISSSICHLTNESDGHTTSLYGIGFGPFIITNKHLFRRNNGTLVVQSLHGVFKVKDTTTLQQHLVDGRDMIIIRMPKDFPPFPQKLKFREPQREERICLVTTNFQTKPMSSMVSDTSCTFPSGDGIFWKHWIQTKDGQCGSPLVSTRDGFIVGIHSASNFTNTNNYFTSVPKNFMELLTNQEAQQWVSGWRLNADSVLWGGHKVFMVKPEEPFQPVKEATQL [S121P]	0.117		0.0611		0.0716			0.0959	0.0796	0.0612	0.0769	0.0715	0.0891			0.117	0.0631	0.141
